The other results are listed elsewhere or left out.
test system: T1, C. trachomatis L2/434/Bu expressing GFP (CTL2-GFP); design: species or system HeLa; C. trachomatis total inclusion area by high-content imaging, normalised to DMSO; conditions: total inclusion area; 28.5 h, 10 µM; inhibitor
T1 construct: L2/434/Bu GFP intracellular growth in HeLa cells
Method in brief: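 Host cell viability was gauged from Hoechst-stained nuclei counts, while chlamydial growth was taken from total inclusion area and inclusion number per well. Cells were fixed and imaged by high-content microscopy once bulk GFP and resorufin fluorescence had been measured.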

Row | SMILES | % of control remaining
1 | CCc1c(C(=O)Nc2ccc3nc(C)cn3c2)cnc2cc(O)nn12 [CBK291178] | 111.672
2 | CN(C)Cc1ccccc1-n1ncc(-c2ccc(Br)cc2F)n1 [CBK112924] | 75.2018
3 | COc1ccc2occ(C(=O)c3ccc(N)cc3)c2c1 [CBK111303] | 103.705
4 | CS(=O)(=O)N1CC2(CCN(CCCOc3ccccc3)CC2)c2ccccc21 [CBK115457T] | 46.4067
5 | O=C1NC(=O)C(CC(=O)N2CCN(Cc3nc4ccccc4s3)CC2)S1 (stereo not shown) [CBK295654] | 112.182
6 | CCCCC(=O)Nc1ccc(C(=O)N2CCN(C)CC2)cc1 [CBK304662] | 54.23
7 | Cc1ccccc1NCC(=O)N/N=C\c1cc(Br)c(O)c(Br)c1 [CBK262120] | 105.556
8 | Cc1cccc(OCCNC(=O)CSc2n[nH]c(=O)n2C2CC2)c1 [CBK295599] | 88.5765
9 | CC1(C)NC(=O)N(CC(O)CN2CCCC2)C1=O (stereo not shown) [CBK264558] | 98.2493
10 | Cc1ccc(NC(=O)NC(=O)C2CCN(CCc3ccc(F)cc3)CC2)cc1Cl [CBK035047] | 100.132
11 | Fc1cccc(Cl)c1CN1CNC(=S)NC1 [CBK006480] | 130.53
12 | CC(C)c1ccc(OCCN2CCNCC2)cc1 [CBK266024C] | 112.661
13 | COCC(=O)N[C@H]1CCN2C(=O)c3cc(-c4ccccc4F)ccc3NC(=O)[C@@H]2C1 [CBK289553] | 84.3356
14 | c1ccc(N2CCN(C3c4ccccc4Sc4ccccc43)CC2)cc1 [CBK066894] | 91.526
15 | Fc1cc(F)c(OCCCCOc2nccnc2N2CCNCC2)cc1F [CBK028624T] | 79.1148
16 | CCN1CCN(C(=O)C2CC(C)=C(C)CC2C(=O)O)CC1 (stereo not shown) [CBK270311] | 113.33
17 | CCNC(=O)NC1CC(C)(C)Cc2c1cnn2-c1ccc(OC)cc1 (stereo not shown) [CBK307313] | 64.9625
18 | CCOc1cccc(-c2cn3ccnc3c(N(C)CCN(C)C)n2)c1 [CBK066569] | 120.706
19 | COc1cc(CNC(=O)c2cnoc2-c2ccc(Br)cc2)cc(OC)c1OC [CBK154893] | 100.284
20 | CC1CC(C)CN(C(=O)c2ccc(-n3ccnc3)c(-n3cccc3)c2)C1 (stereo not shown) [CBK285372] | 87.3462
21 | COc1ccc(CCCC(=O)Nc2cncc(OC3CCNCC3)n2)cc1OC [CBK028437T] | 86.4214

Row | SMILES | % of control remaining
22 | CS(=O)(=O)Nc1ccccc1C(=O)NCc1ccccn1 [CBK268494] | 119.282
23 | COc1ccc2ccccc2c1CNc1ccc(N2CCOCC2)c(C(=O)O)c1 [CBK269376] | 104.664
24 | NS(=O)(=O)c1ccc(CNC(=O)c2cncc(-c3ccc(C(=O)N4CCOCC4)cc3)c2)cc1 [CBK158641] | 71.255
25 | CCn1cc(C(=O)O)c(=O)c2cc(F)c(N3CCN(C(=S)Nc4ccc5c(c4)OCO5)CC3)cc21 [CBK268027] | 98.4026
26 | COC(=O)CCNc1n[nH]c(=O)[nH]c1=O [CBK217927] | 102.212
27 | COc1cc(CN2CCN(S(=O)(=O)c3ccc(F)cc3)CC2)cc(OC)c1O [CBK264269G] | 101.816
28 | O=C(Cn1cnc(-c2noc(-c3cccnc3)n2)c1)Nc1ccc(Cl)cc1 [CBK287822] | 117.741
29 | CC(C)COc1ccccc1C(=O)NCCC(=O)O [CBK033507] | 51.0342
30 | O=C(CCn1cccn1)N1CCC(c2cc3ncccc3[nH]2)CC1 [CBK284457] | 95.7087
31 | N#C/C(=C/c1cn(CCC(N)=O)c2ccccc12)c1ccc2c(c1)OCO2 [CBK267319] | 104.506
32 | CC(=O)N1Cc2ccccc2OC2(CCCN(C(=O)C3CC3)C2)C1 (stereo not shown) [CBK284991] | 105.656
33 | O=C(CC(C(=O)O)N1CCOCC1)Nc1ccc(Cl)cc1 (stereo not shown) [CBK267086] | 120.425
34 | Cc1nn(CC(=O)OC2CCCCC2)c(=O)c2cc3sccc3n12 [CBK284045] | 85.3149
35 | CN(C)C(=O)c1cccc(-c2nccnc2NCc2cccc([N+](=O)[O-])c2)c1 [CBK036651] | 112.656
36 | Cc1cccnc1NC(=S)NCc1ccco1 [CBK268907] | 89.5513
37 | COC(=O)c1cccc2c3c([nH]c12)CCCC3 [CBK000423] | 89.0598
38 | O=S(=O)(Cc1ccccc1)Nc1nccnc1-c1cccs1 [CBK050766] | 83.1742
39 | O=C(O)CCCNS(=O)(=O)c1ccc(C2CCCCC2)cc1 [CBK299800] | 58.0567
40 | CCCc1n[nH]c(Cc2c(Cl)cccc2Cl)c1C(=O)OCC [CBK113275] | 76.0804
41 | CCOC(=O)C1CCN(S(=O)(=O)c2ccc(NC(=O)N3CCCC3)cc2)CC1 [CBK269823] | 88.657
42 | Cc1ccc(C23CC4CC(CC(NC(=O)NC(Cc5ccccc5)C(=O)O)(C4)C2)C3)cc1 (stereo not shown) [CBK267423] | 94.9243

Row | SMILES | % of control remaining
43 | CC(C)c1ccc(N2C(=O)N[C@@H]3CCN(C(=O)COc4ccccc4)[C@@H]3C2=O)cc1 [CBK289288] | 102.051
44 | O=C(O)CCC(=O)N1N=C2C(=Cc3ccc(F)cc3)CCCC2C1c1ccc(F)cc1 (stereo not shown) [CBK296066] | 106.396
45 | COc1cc(CNc2cc(C(=O)O)ccc2C)cc(Br)c1OC [CBK269679] | 96.7858
46 | COCc1nnc(NS(=O)(=O)c2ccc(C)cc2)s1 [CBK045523] | 109.614
47 | CN1CCN(C(=O)c2ccc(-c3cnc(OCC4CCN(C(=O)OC(C)(C)C)CC4)nc3)cn2)CC1 [CBK170021] | 86.3274
48 | O=C1N(C2CCCCC2)CC2C(c3ccccc3)ONC12O (stereo not shown) [CBK021700] | 37.3614
49 | Cc1nn(Cc2nnc(-c3cccs3)o2)c(C)c1Br [CBK010809] | 80.5189
50 | S=C(Cc1csc2ccccc12)NC1CCCCC1 [CBK023515] | 78.6192
51 | CCc1nn(CC(=O)N(C)C)c(=O)c2cc3sccc3n12 [CBK284031] | 85.9605
52 | Cc1ccc2c(c1)cc(C)c1nn(CC(=O)NC3CC3)c(=O)n12 [CBK283873] | 96.2508
53 | O=C(Cc1cccs1)N1CCC(c2nnc(-c3ccccc3)c(-c3ccccc3)n2)CC1 [CBK286283] | 111.272
54 | CCNc1nccnc1-c1cnc(OC)nc1OC [CBK088587] | 57.2616
55 | O=C(Oc1ccc2c(c1)OCO2)c1cc(S(=O)(=O)N2CCOCC2)c(Cl)cc1Cl [CBK269709] | 93.9548
56 | c1cnc(N2CCCC2)c(OC2CCNC2)n1 (stereo not shown) [CBK115284] | 120.759
57 | O=C(Cc1ccc(Cl)cc1)Nc1cccc(C(=O)Nc2ccccc2C(=O)O)c1 [CBK264750] | 100.873
58 | O=C(O)CCC(CCC(=O)O)C(=O)O [CBK260994] | 95.847
59 | OCCCNc1cncc(-c2ccc(F)cc2F)n1 [CBK065851] | 134.188
60 | CCCn1cc(CNC(=O)c2cccc(S(=O)(=O)N3CCCC3)c2)cn1 [CBK307095] | 15.9219
61 | O=C(O)COc1cccc2nsnc12 [CBK019749] | 100.012
62 | CCCS(=O)(=O)NC[C@H]1C[C@@H]2CCN1C[C@@H]2c1cc(-c2ccccc2)nn1C [CBK289095] | 109.387
63 | Clc1ccc(-n2ncc3c(NCc4ccccc4)ncnc32)cc1 [CBK287355] | 91.8004

Row | SMILES | % of control remaining
64 | O=C(O)COc1ccc(C=C2C(=O)c3ccccc3C2=O)cc1Cl [CBK263857] | 117.071
65 | COc1cc(F)cc(OC2CCNCC2)c1NC(=O)Cc1c[nH]c2ccccc12 [CBK050246T] | 86.0255
66 | CCn1c(SCC(=O)O)nnc1-c1c[nH]c2ccccc12 [CBK287089] | 90.3596
67 | O=C(O)c1sc2ncccc2c1NS(=O)(=O)c1cc(Cl)sc1Cl [CBK050650] | 104.822
68 | Cc1ccc(Cc2cnc(NC(=O)NC3CCOC(C)(C)C3)s2)cc1F (stereo not shown) [CBK304139] | 78.4599
69 | CCOC(=O)c1cnc2c(C)cc(C)cc2c1NCCCN(C)C [CBK266021] | 119.632
70 | O=C(NCCn1nc(-c2ccco2)ccc1=O)C1CCCC1 [CBK283707] | 97.7033
71 | CCC(=O)Nc1ccc(C(=O)N2CCN(c3ccccc3)CC2)cc1 [CBK307425] | 59.1423
72 | O=C1c2ccccc2C(=O)N1CCOc1nccnc1-c1cnn(Cc2ccccc2)c1 [CBK107089] | 70.9423
73 | COCCCn1c(CCC(=O)O)ccc1-c1ccc(F)cc1 [CBK267886] | 98.3461
74 | Cc1ccc(-c2csc(NC(=O)c3ccccc3C(=O)O)n2)cc1 [CBK072083] | 109.013
75 | C#CCNCCCOc1ccccc1Oc1ccccc1 [CBK017707C] | 89.8486
76 | CSc1nsc(SCC(=O)Nc2ccc(OC(C)=O)cc2)n1 [CBK268948] | 94.4365
77 | O=c1[nH]c(N2CCC3(CC2)OCCO3)nc2c(-c3ccccc3Cl)csc12 [CBK291128] | 76.7532
78 | O=S(=O)(Nc1nccnc1N1CCN(c2cnccn2)CC1)c1ccc(Cl)cc1 [CBK049664] | 102.153
79 | NNS(=O)(=O)c1ccc(Oc2ccc([N+](=O)[O-])cc2)cc1 [CBK261669] | 102.709
80 | Cn1cc(CNCC2CCN(CCO)CC2)c(-c2cccnc2)n1 [CBK305153] | 73.9927
81 | Cc1nnc(N/N=C\c2ccco2)n1N [CBK028824C] | 57.935
82 | CC(Oc1cccc(C#N)c1)C(=O)NCC1(N2CCOCC2)CCSC1 (stereo not shown) [CBK305780] | 27.5298
